From the supplement of paper PMC8728848
Some of the results follow.

Assays:
Assay in all cases: glycan array binding signal (z-score within array); higher = stronger binding
Details in all cases: glycan notation: IUPAC condensed, linker removed
Fuc(a1-2)GlcNAc = biological target: Fuc(a1-2)GlcNAc
How it was run: (§1)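 The binding signal is a Z-score computed within each array and averaged over linkers. Arrays of the same protein sequence at different concentrations or buffers were also averaged together. Data originate from 3228 arrays in the Consortium for Functional Glycomics database, kept only where the protein sequence was available.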

Fuc(a1-2)[Gal(a1-3)]Gal = biological target: Fuc(a1-2)[Gal(a1-3)]Gal
How it was run: as §1

[1] = biological target: Fuc(a1-2)[Gal(a1-3)]Gal(b1-3)GalNAc
How it was run: as §1

[2] = biological target: Fuc(a1-2)[Gal(a1-3)]Gal(b1-3)GalNAc(b1-3)Gal(a1-4)Gal(b1-4)Glc
How it was run: as §1

[3] = biological target: Fuc(a1-2)[Gal(a1-3)]Gal(b1-3)GlcNAc
How it was run: as §1

[4] = biological target: Fuc(a1-2)[Gal(a1-3)]Gal(b1-3)GlcNAc(b1-2)Man(a1-3)[Fuc(a1-2)[Gal(a1-3)]Gal(b1-3)GlcNAc(b1-2)Man(a1-6)]Man(b1-4)GlcNAc(b1-4)GlcNAc
How it was run: as §1

[5] = biological target: Fuc(a1-2)[Gal(a1-3)]Gal(b1-3)GlcNAc(b1-2)Man(a1-3)[Fuc(a1-2)[Gal(a1-3)]Gal(b1-3)GlcNAc(b1-2)Man(a1-6)]Man(b1-4)GlcNAc(b1-4)[Fuc(a1-6)]GlcNAc
How it was run: as §1

[6] = biological target: Fuc(a1-2)[Gal(a1-3)]Gal(b1-3)GlcNAc(b1-3)GalNAc
How it was run: as §1

[7] = biological target: Fuc(a1-2)[Gal(a1-3)]Gal(b1-3)GlcNAc(b1-6)GalNAc
How it was run: as §1

[8] = biological target: Fuc(a1-2)[Gal(a1-3)]Gal(b1-4)Glc
How it was run: as §1

[9] = biological target: Fuc(a1-2)[Gal(a1-3)]Gal(b1-4)GlcNAc
How it was run: as §1

[10] = biological target: Fuc(a1-2)[Gal(a1-3)]Gal(b1-4)GlcNAc(b1-2)Man
How it was run: as §1

[11] = biological target: Fuc(a1-2)[Gal(a1-3)]Gal(b1-4)GlcNAc(b1-2)Man(a1-3)[Fuc(a1-2)[Gal(a1-3)]Gal(b1-4)GlcNAc(b1-2)Man(a1-6)]Man(b1-4)GlcNAc(b1-4)GlcNAc
How it was run: as §1

[12] = biological target: Fuc(a1-2)[Gal(a1-3)]Gal(b1-4)GlcNAc(b1-2)Man(a1-3)[Fuc(a1-2)[Gal(a1-3)]Gal(b1-4)GlcNAc(b1-2)Man(a1-6)]Man(b1-4)GlcNAc(b1-4)[Fuc(a1-6)]GlcNAc
How it was run: as §1

[13] = biological target: Fuc(a1-2)[Gal(a1-3)]Gal(b1-4)GlcNAc(b1-3)Gal(b1-4)Glc
How it was run: as §1

[14] = biological target: Fuc(a1-2)[Gal(a1-3)]Gal(b1-4)GlcNAc(b1-3)GalNAc
How it was run: as §1

[15] = biological target: Fuc(a1-2)[Gal(a1-3)]Gal(b1-4)GlcNAc(b1-6)GalNAc
How it was run: as §1

[16] = biological target: Fuc(a1-2)[Gal(a1-3)]Gal(b1-4)[Fuc(a1-3)]Glc
How it was run: as §1

[17] = biological target: Fuc(a1-2)[Gal(a1-3)]Gal(b1-4)[Fuc(a1-3)]GlcNAc
How it was run: as §1

[18] = biological target: Fuc(a1-2)[Gal(a1-3)]Gal(b1-4)[Fuc(a1-3)]GlcNAc(b1-3)GalNAc
How it was run: as §1

[19] = biological target: Fuc(a1-2)[Gal(a1-4)]Gal(b1-4)GlcNAc
How it was run: as §1

[20] = biological target: Fuc(a1-2)[GalNAc(a1-3)]Gal
How it was run: as §1

[21] = biological target: Fuc(a1-2)[GalNAc(a1-3)]Gal(b1-3)GalNAc(a1-3)[Fuc(a1-2)]Gal(b1-4)GlcNAc
How it was run: as §1

B1: PNA (Arachis hypogaea), P02872 (protein)
chain: MKPFCVFLTFFLLLAASSKKVDSAETVSFNFNSFSEGNPAINFQGDVTVLSNGNIQLTNLNKVNSVGRVLYAMPVRIWSSATGNVASFLTSFSFEMKDIKDYDPADGIIFFIAPEDTQIPAGSIGGGTLGVSDTKGAGHFVGVEFDTYSNSEYNDPPTDHVGIDVNSVDSVKTVPWNSVSGAVVKVTVIYDSSTKTLSVAVTNDNGDITTIAQVVDLKAKLPERVKFGFSASGSLGGRQIHLIRSWSFTSTLITTTRRSIDNNEKKIMNMASA
glycan array binding signal (z-score) (Fuc(a1-2)GlcNAc): -0.21
glycan array binding signal (z-score) (Fuc(a1-2)[Gal(a1-3)]Gal): -0.173
glycan array binding signal (z-score) [1]: -0.246
glycan array binding signal (z-score) [2]: -0.328
glycan array binding signal (z-score) [3]: -0.115
glycan array binding signal (z-score) [4]: -0.158
glycan array binding signal (z-score) [5]: -0.244
glycan array binding signal (z-score) [6]: -0.24
glycan array binding signal (z-score) [7]: -0.158
glycan array binding signal (z-score) [8]: -0.158
glycan array binding signal (z-score) [9]: -0.167
glycan array binding signal (z-score) [10]: -0.159
glycan array binding signal (z-score) [11]: -0.179
glycan array binding signal (z-score) [12]: -0.238
glycan array binding signal (z-score) [13]: -0.195
glycan array binding signal (z-score) [14]: -0.202
glycan array binding signal (z-score) [15]: -0.271
glycan array binding signal (z-score) [16]: -0.09
glycan array binding signal (z-score) [17]: -0.103
glycan array binding signal (z-score) [18]: -0.214
glycan array binding signal (z-score) [19]: -0.155
glycan array binding signal (z-score) [20]: -0.219
glycan array binding signal (z-score) [21]: -0.181
